Results reported in PMC4440778, “Structure-Activity Relationship and Mode of Action of a Frog Secreted Antibacterial Peptide B1CTcu5 Using Synthetically and Modularly Modified or Deleted (SMMD) Peptides” (PLoS ONE, 2015).
Values after ≈ are worked out from the molar mass of the structure shown. Where a SMILES comes first, the peptide text is derived from it. Bridges are numbered along the chain shown (N, C = ends). Where no end group is shown, it is not given here. [ ]: non-standard residue; d: D form. The star is where a group is joined. Acm = CC(=O)NC*

Experiments:
MRSA ATCC 43300 = settings: LB broth, 10^6 CFU/ml, 24 h 37°C, OD600, 100% growth inhibition, triplicate
VRE ATCC 29212 = settings: LB broth, 10^6 CFU/ml, 24 h 37°C, OD600, 100% growth inhibition, triplicate

Molecule	MIC (MRSA ATCC 43300) [µg/mL]	MIC (VRE ATCC 29212) [µg/mL]
CC[C@H](C)[C@@H]1NC(=O)[C@H](CCCCN)NC(=O)[C@@H](NC(=O)[C@H](CC(C)C)NC(=O)[C@@H](NC(=O)[C@H](CCC(N)=O)NC(=O)[C@@H]2CCCN2C(=O)[C@H](CC(C)C)NC(=O)[C@H](Cc2ccccc2)NC(=O)[C@H](CC(N)=O)NC(=O)[C@H](C)NC(=O)[C@H](C)NC(=O)[C@H](CC(C)C)NC(=O)CNC(=O)[C@H](C)NC(=O)[C@@H](NC(=O)[C@@H](N)CCCCN)[C@@H](C)CC)[C@@H](C)CC)CSSC[C@@H](C(N)=O)NC(=O)[C@H](CCCCN)NC(=O)[C@H](CCCNC(=N)N)NC(=O)[C@H](C)NC1=O [B1CTcu5K] (H-KIAGLAANFLPQILCKIARKC-NH2; disulfide 15-21)	>100	50 (≈ 22 µM)
CC[C@H](C)[C@@H]1NC(=O)[C@H](CCCCN)NC(=O)[C@@H](NC(=O)[C@H](CC(C)C)NC(=O)[C@@H](NC(=O)[C@H](CCC(N)=O)NC(=O)[C@@H]2CCCN2C(=O)[C@H](CC(C)C)NC(=O)[C@H](Cc2ccccc2)NC(=O)[C@H](CC(N)=O)NC(=O)[C@H](C)NC(=O)[C@H](C)NC(=O)[C@H](CC(C)C)NC(=O)CNC(=O)[C@H](C)NC(=O)[C@@H](NC(=O)[C@@H](N)Cc2c[nH]cn2)[C@@H](C)CC)[C@@H](C)CC)CSSC[C@@H](C(N)=O)NC(=O)[C@H](CCCCN)NC(=O)[C@H](CCCNC(=N)N)NC(=O)[C@H](C)NC1=O [B1CTcu5H] (H-HIAGLAANFLPQILCKIARKC-NH2; disulfide 15-21)	100 (≈ 43.9 µM)	–
LIAGLAANFLPQILCKIARK-NH2 [B1CTcu5-C]	50	50
CC[C@H](C)[C@@H]1NC(=O)[C@H](CCCCN)NC(=O)[C@@H](NC(=O)[C@H](CC(C)C)NC(=O)[C@@H](NC(=O)[C@H](CCC(N)=O)NC(=O)[C@@H]2CCCN2C(=O)[C@H](CC(C)C)NC(=O)[C@H](Cc2ccccc2)NC(=O)[C@H](CC(N)=O)NC(=O)[C@H](C)NC(=O)[C@H](C)NC(=O)[C@H](CC(C)C)NC(=O)CNC(=O)[C@H](C)NC(=O)[C@@H](NC(=O)[C@@H](N)Cc2c[nH]c3ccccc23)[C@@H](C)CC)[C@@H](C)CC)CSSC[C@@H](C(N)=O)NC(=O)[C@H](CCCCN)NC(=O)[C@H](CCCNC(=N)N)NC(=O)[C@H](C)NC1=O [B1CTcu5W] (H-WIAGLAANFLPQILCKIARKC-NH2; disulfide 15-21)	25 (≈ 10.7 µM)	50 (≈ 21.5 µM)
CC[C@H](C)[C@@H]1NC(=O)[C@H](CCCCN)NC(=O)[C@@H](NC(=O)[C@H](CC(C)C)NC(=O)[C@@H](NC(=O)[C@H](CCC(N)=O)NC(=O)[C@@H]2CCCN2C(=O)[C@H](CC(C)C)NC(=O)[C@H](Cc2ccccc2)NC(=O)[C@H](CC(N)=O)NC(=O)[C@H](C)NC(=O)[C@H](C)NC(=O)[C@@H](N)CC(C)C)[C@@H](C)CC)CSSC[C@@H](C(N)=O)NC(=O)[C@H](CCCCN)NC(=O)[C@H](CCCNC(=N)N)NC(=O)[C@H](C)NC1=O [B1CTcu5-LIAG] (H-LAANFLPQILCKIARKC-NH2; disulfide 11-17)	50 (≈ 26.3 µM)	100 (≈ 52.6 µM)
CC[C@H](C)[C@H](NC(=O)[C@H](CCCCN)NC(=O)[C@H](CS)NC(=O)[C@H](CC(C)C)NC(=O)[C@@H](NC(=O)[C@H](CCC(N)=O)NC(=O)[C@@H]1CCCN1C(=O)[C@H](CC(C)C)NC(=O)[C@H](Cc1ccccc1)NC(=O)[C@H](CC(N)=O)NC(=O)[C@H](C)NC(=O)[C@H](C)NC(=O)[C@H](CC(C)C)NC(=O)CNC(=O)[C@H](C)NC(=O)[C@@H](NC(=O)[C@@H](N)CC(C)C)[C@@H](C)CC)[C@@H](C)CC)C(=O)N[C@@H](C)C(=O)N[C@@H](CCCNC(=N)N)C(=O)N[C@@H](CCCCN)C(=O)N[C@@H](CS)C(N)=O [Linear B1CTcu5] (H-LIAGLAANFLPQILCKIARKC-NH2)	>100	100 (≈ 44.3 µM)
CC[C@H](C)[C@H](NC(=O)[C@H](CCCCN)NC(=O)[C@H](CSCNC(C)=O)NC(=O)[C@H](CC(C)C)NC(=O)[C@@H](NC(=O)[C@H](CCC(N)=O)NC(=O)[C@@H]1CCCN1C(=O)[C@H](CC(C)C)NC(=O)[C@H](Cc1ccccc1)NC(=O)[C@H](CC(N)=O)NC(=O)[C@H](C)NC(=O)[C@H](C)NC(=O)[C@H](CC(C)C)NC(=O)CNC(=O)[C@H](C)NC(=O)[C@@H](NC(=O)[C@@H](N)CC(C)C)[C@@H](C)CC)[C@@H](C)CC)C(=O)N[C@@H](C)C(=O)N[C@@H](CCCNC(=N)N)C(=O)N[C@@H](CCCCN)C(=O)N[C@@H](CS)C(N)=O [B1CTcu5C (Acm)] (H-LIAGLAANFLPQILC(Acm)KIARKC-NH2)	50 (≈ 21.5 µM)	100 (≈ 43 µM)
CC[C@H](C)[C@@H]1NC(=O)[C@H](CCCCN)NC(=O)[C@@H](NC(=O)[C@H](CC(C)C)NC(=O)[C@@H](NC(=O)[C@H](CCC(N)=O)NC(=O)[C@@H]2CCCN2C(=O)[C@H](CC(C)C)NC(=O)[C@H](Cc2ccccc2)NC(=O)[C@H](CC(N)=O)NC(=O)[C@H](C)NC(=O)[C@H](C)NC(=O)[C@H](CC(C)C)NC(=O)CNC(=O)[C@H](C)NC(=O)[C@@H](NC(=O)[C@@H](N)CCCNC(=N)N)[C@@H](C)CC)[C@@H](C)CC)CSSC[C@@H](C(N)=O)NC(=O)[C@H](CCCCN)NC(=O)[C@H](CCCNC(=N)N)NC(=O)[C@H](C)NC1=O [B1CTcu5R] (H-RIAGLAANFLPQILCKIARKC-NH2; disulfide 15-21)	25 (≈ 10.9 µM)	50 (≈ 21.8 µM)
CC[C@@H](C)[C@@H](NC(=O)[C@H](N)CC(C)C)C(=O)N[C@H](C)C(=O)NCC(=O)N[C@H](CC(C)C)C(=O)N[C@H](C)C(=O)N[C@H](C)C(=O)N[C@H](CC(N)=O)C(=O)N[C@H](Cc1ccccc1)C(=O)N[C@H](CC(C)C)C(=O)N1CCC[C@@H]1C(=O)N[C@H](CCC(N)=O)C(=O)N[C@@H](C(=O)N[C@H](CC(C)C)C(=O)N[C@@H]1CSSC[C@H](C(N)=O)NC(=O)[C@@H](CCCCN)NC(=O)[C@@H](CCCNC(=N)N)NC(=O)[C@@H](C)NC(=O)[C@@H]([C@H](C)CC)NC(=O)[C@@H](CCCCN)NC1=O)[C@H](C)CC [DB1CTcu5] (H-[dL][dI][dA]G[dL][dA][dA][dN][dF][dL][dP][dQ][dI][dL][dC][dK][dI][dA][dR][dK][dC]-NH2; disulfide 15-21)	25 (≈ 11.1 µM)	50 (≈ 22.2 µM)
CC[C@H](C)[C@@H]1NC(=O)[C@H](CCCCN)NC(=O)[C@@H](NC(=O)[C@H](CC(C)C)NC(=O)[C@@H](NC(=O)[C@H](CCC(N)=O)NC(=O)[C@@H]2CCCN2C(=O)[C@H](CC(C)C)NC(=O)[C@H](Cc2ccccc2)NC(=O)[C@H](CC(N)=O)NC(=O)[C@H](C)NC(=O)[C@H](C)NC(=O)[C@H](CC(C)C)NC(=O)CNC(=O)[C@H](C)NC(=O)[C@@H](NC(=O)[C@@H](N)CC(C)C)[C@@H](C)CC)[C@@H](C)CC)CSSC[C@@H](C(N)=O)NC(=O)[C@H](CCCCN)NC(=O)[C@H](CCCNC(=N)N)NC(=O)[C@H](C)NC1=O [Cyclic B1CTcu5] (H-LIAGLAANFLPQILCKIARKC-NH2; disulfide 15-21)	>100	100 (≈ 44.4 µM)
CC[C@H](C)[C@H](N)C(=O)N[C@@H](C)C(=O)NCC(=O)N[C@@H](CC(C)C)C(=O)N[C@@H](C)C(=O)N[C@@H](C)C(=O)N[C@@H](CC(N)=O)C(=O)N[C@@H](Cc1ccccc1)C(=O)N[C@@H](CC(C)C)C(=O)N1CCC[C@H]1C(=O)N[C@@H](CCC(N)=O)C(=O)N[C@H](C(=O)N[C@@H](CC(C)C)C(=O)N[C@H]1CSSC[C@@H](C(N)=O)NC(=O)[C@H](CCCCN)NC(=O)[C@H](CCCNC(=N)N)NC(=O)[C@H](C)NC(=O)[C@H]([C@@H](C)CC)NC(=O)[C@H](CCCCN)NC1=O)[C@@H](C)CC [B1CTcu5-L] (H-IAGLAANFLPQILCKIARKC-NH2; disulfide 14-20)	>100	–
